# In paper PMC5651818, “VPS18 recruits VPS41 to the human HOPS complex via a RING–RING interaction” (Biochemical Journal, 2017):
# No constants are given. Whether binding was seen depends on the method and setting. Binding seen in cells or lysates may run through a third protein. Some binding calls cover weakened binding; strength is not graded here. Tags and fused reporters may be left off the sequences shown.
# T1: EGFP-tagged VPS41 N-terminal construct (residues 1–777) (human) (UniProt P49754)
# T1 sequence: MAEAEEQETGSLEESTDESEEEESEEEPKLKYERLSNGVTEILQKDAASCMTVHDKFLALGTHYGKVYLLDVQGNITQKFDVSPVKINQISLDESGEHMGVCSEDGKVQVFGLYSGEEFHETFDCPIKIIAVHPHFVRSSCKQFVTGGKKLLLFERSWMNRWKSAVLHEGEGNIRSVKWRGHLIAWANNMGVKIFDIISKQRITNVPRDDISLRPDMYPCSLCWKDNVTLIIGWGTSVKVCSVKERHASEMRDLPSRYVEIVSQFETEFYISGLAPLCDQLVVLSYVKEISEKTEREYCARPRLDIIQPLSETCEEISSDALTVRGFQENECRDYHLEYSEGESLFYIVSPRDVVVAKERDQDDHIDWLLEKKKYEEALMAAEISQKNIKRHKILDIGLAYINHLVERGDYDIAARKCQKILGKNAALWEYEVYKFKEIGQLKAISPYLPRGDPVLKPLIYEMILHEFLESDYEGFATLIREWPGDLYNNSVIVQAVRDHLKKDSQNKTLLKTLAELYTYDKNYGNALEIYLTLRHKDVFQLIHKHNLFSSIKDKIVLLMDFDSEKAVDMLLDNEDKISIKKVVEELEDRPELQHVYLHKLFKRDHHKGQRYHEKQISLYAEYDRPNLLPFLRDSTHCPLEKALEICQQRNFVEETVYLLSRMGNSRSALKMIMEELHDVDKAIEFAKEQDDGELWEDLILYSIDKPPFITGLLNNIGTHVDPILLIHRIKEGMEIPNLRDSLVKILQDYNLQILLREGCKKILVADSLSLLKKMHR
# T2: EGFP-tagged VPS8 RING long construct (human) (UniProt Q8N3P4)
# T2 sequence: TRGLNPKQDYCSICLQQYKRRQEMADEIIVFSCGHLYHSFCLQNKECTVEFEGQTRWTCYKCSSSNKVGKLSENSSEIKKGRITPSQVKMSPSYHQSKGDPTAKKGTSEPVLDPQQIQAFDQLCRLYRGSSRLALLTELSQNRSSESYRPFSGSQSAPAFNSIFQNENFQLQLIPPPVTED
# T3: EGFP-tagged VPS8 RING short construct (human) (UniProt Q8N3P4)
# T3 sequence: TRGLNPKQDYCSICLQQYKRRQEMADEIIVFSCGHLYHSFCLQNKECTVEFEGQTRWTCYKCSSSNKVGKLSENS
# B1: endogenous VPS11 (protein, UniProt Q9H270 1-941)
# chain: MAAYLQWRRFVFFDKELVKEPLSNDGAAPGATPASGSAASKFLCLPPGITVCDSGRGSLVFGDMEGQIWFLPRSLQLTGFQAYKLRVTHLYQLKQHNILASVGEDEEGINPLVKIWNLEKRDGGNPLCTRIFPAIPGTEPTVVSCLTVHENLNFMAIGFTDGSVTLNKGDITRDRHSKTQILHKGNYPVTGLAFRQAGKTTHLFVVTTENVQSYIVSGKDYPRVELDTHGCGLRCSALSDPSQDLQFIVAGDECVYLYQPDERGPCFAFEGHKLIAHWFRGYLIIVSRDRKVSPKSEFTSRDSQSSDKQILNIYDLCNKFIAYSTVFEDVVDVLAEWGSLYVLTRDGRVHALQEKDTQTKLEMLFKKNLFEMAINLAKSQHLDSDGLAQIFMQYGDHLYSKGNHDGAVQQYIRTIGKLEPSYVIRKFLDAQRIHNLTAYLQTLHRQSLANADHTTLLLNCYTKLKDSSKLEEFIKKKSESEVHFDVETAIKVLRQAGYYSHALYLAENHAHHEWYLKIQLEDIKNYQEALRYIGKLPFEQAESNMKRYGKILMHHIPEQTTQLLKGLCTDYRPSLEGRSDREAPGCRANSEEFIPIFANNPRELKAFLEHMSEVQPDSPQGIYDTLLELRLQNWAHEKDPQVKEKLHAEAISLLKSGRFCDVFDKALVLCQMHDFQDGVLYLYEQGKLFQQIMHYHMQHEQYRQVISVCERHGEQDPSLWEQALSYFARKEEDCKEYVAAVLKHIENKNLMPPLLVVQTLAHNSTATLSVIRDYLVQKLQKQSQQIAQDELRVRRYREETTRIRQEIQELKASPKIFQKTKCSICNSALELPSVHFLCGHSFHQHCFESYSESDADCPTCLPENRKVMDMIRAQEQKRDLHDQFQHQLKCSNDSFSVIADYFGRGVFNKLTLLTDPPTARLTSSLEAGLQRDLLMHSRRGT
# B2: endogenous VPS33A (protein, UniProt Q96AX1 1-596)
# chain: MAAHLSYGRVNLNVLREAVRRELREFLDKCAGSKAIVWDEYLTGPFGLIAQYSLLKEHEVEKMFTLKGNRLPAADVKNIIFFVRPRLELMDIIAENVLSEDRRGPTRDFHILFVPRRSLLCEQRLKDLGVLGSFIHREEYSLDLIPFDGDLLSMESEGAFKECYLEGDQTSLYHAAKGLMTLQALYGTIPQIFGKGECARQVANMMIRMKREFTGSQNSIFPVFDNLLLLDRNVDLLTPLATQLTYEGLIDEIYGIQNSYVKLPPEKFAPKKQGDGGKDLPTEAKKLQLNSAEELYAEIRDKNFNAVGSVLSKKAKIISAAFEERHNAKTVGEIKQFVSQLPHMQAARGSLANHTSIAELIKDVTTSEDFFDKLTVEQEFMSGIDTDKVNNYIEDCIAQKHSLIKVLRLVCLQSVCNSGLKQKVLDYYKREILQTYGYEHILTLHNLEKAGLLKPQTGGRNNYPTIRKTLRLWMDDVNEQNPTDISYVYSGYAPLSVRLAQLLSRPGWRSIEEVLRILPGPHFEERQPLPTGLQKKRQPGENRVTLIFFLGGVTFAEIAALRFLSQLEDGGTEYVIATTKLMNGTSWIEALMEKPF
# Columns and labels:
# Assay in all cases: co-IP; HEK293T cells transfected with EGFP-tagged constructs; GFP-TRAP beads; lysis in 10 mM Tris-HCl (pH 7.5), 150 mM NaCl, 0.5 mM EDTA, 0.5% NP-40; immunoblot for endogenous subunits
# [1] = target: T1, EGFP-tagged VPS41 N-terminal construct (residues 1–777) (human)
# [2] = target: T2, EGFP-tagged VPS8 RING long construct (human)
# [3] = target: T3, EGFP-tagged VPS8 RING short construct (human)
Binder,binding [1],binding [2],binding [3]
B1,no binding,binds,no binding
B2,no binding,no binding,no binding
